# Experimental data reported in the supplement of paper PMC8728848.
# The other results are listed elsewhere or left out.
# B1: FimD (Bordetella pertussis) (protein)
# chain: MPARVISFCGAALAVWAGLAVQPAMAVDPPVDCGRALGLHFWSSASLISDQTPDGTLIGKPVVGRSLLSKSCKVPDDIKEDLSDNHDGEPVDIVLELGSNYKIRPQSYGHPGIVVDLPFGSTEETGIAIYIDFGSSPMQKVGERQWLYPQKGEVLFDVLTINGDNAEVRYQAIKVGPLKRPRKLVLSQFPNLFTYKWVFMRGTSQERVLAQGTIDTDVATSTIDLKTCRYTSQTVSLPIIQRSALTGVGTTLGMTDFQMPFWCYGWPKVSVYMSATKTQTGVDGVALPATGQAAGMASGVGVQLINGKTQQPVKLGLQGKIALPEAQQTESATFSLPMKAQYYQTSTSTSAGKLSVTYAVTLNYD
# What was measured:
# Assay in all cases: glycan array binding signal (z-score within array); higher = stronger binding
# Conditions in all cases: glycan notation: IUPAC condensed, linker removed
# [1] = target: Neu5Ac(a2-3)Gal(b1-3)GalNAc
# Summary of the method: (§1)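 Glycan array data came from 3228 arrays in the Consortium for Functional Glycomics database, and only arrays with an available protein sequence were kept. Glycan names were put into IUPAC-condensed notation, and columns mapping to the same glycan were averaged. The binding signal is a within-array Z-score, averaged across arrays of one protein sequence run at different concentrations or buffers and across linkers. A negative Z-score can be read as non-binding.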
# [2] = target: Neu5Ac(a2-3)Gal(b1-3)GalNAc(b1-3)Gal(a1-4)Gal(b1-4)Glc
# Summary of the method: as §1
# [3] = target: Neu5Ac(a2-3)Gal(b1-3)GalNAc(b1-4)[Neu5Ac(a2-3)]Gal(b1-4)Glc
# Summary of the method: as §1
# [4] = target: Neu5Ac(a2-3)Gal(b1-3)GalNAc(b1-4)[Neu5Ac(a2-8)Neu5Ac(a2-3)]Gal(b1-4)Glc
# Summary of the method: as §1
# [5] = target: Neu5Ac(a2-3)Gal(b1-3)GalNAc6S
# Summary of the method: as §1
# [6] = target: Neu5Ac(a2-3)Gal(b1-3)GlcNAc
# Summary of the method: as §1
# [7] = target: Neu5Ac(a2-3)Gal(b1-3)GlcNAc(b1-2)Man
# Summary of the method: as §1
# [8] = target: Neu5Ac(a2-3)Gal(b1-3)GlcNAc(b1-2)Man(a1-3)[GlcNAc(b1-4)][Neu5Ac(a2-3)Gal(b1-3)GlcNAc(b1-2)Man(a1-6)]Man(b1-4)GlcNAc(b1-4)GlcNAc
# Summary of the method: as §1
# [9] = target: Neu5Ac(a2-3)Gal(b1-3)GlcNAc(b1-2)Man(a1-3)[Neu5Ac(a2-3)Gal(b1-3)GlcNAc(b1-2)Man(a1-6)]Man(b1-4)GlcNAc(b1-4)GlcNAc
# Summary of the method: as §1
# [10] = target: Neu5Ac(a2-3)Gal(b1-3)GlcNAc(b1-3)Gal(b1-3)GlcNAc
# Summary of the method: as §1
# [11] = target: Neu5Ac(a2-3)Gal(b1-3)GlcNAc(b1-3)Gal(b1-4)GlcNAc
# Summary of the method: as §1
# [12] = target: Neu5Ac(a2-3)Gal(b1-3)GlcNAc(b1-3)GalNAc
# Summary of the method: as §1
# [13] = target: Neu5Ac(a2-3)Gal(b1-3)GlcNAc(b1-4)Gal(b1-4)Glc
# Summary of the method: as §1
# [14] = target: Neu5Ac(a2-3)Gal(b1-3)GlcNAc(b1-6)GalNAc
# Summary of the method: as §1
# [15] = target: Neu5Ac(a2-3)Gal(b1-3)GlcNAc6S
# Summary of the method: as §1
# [16] = target: Neu5Ac(a2-3)Gal(b1-3)[Fuc(a1-4)]GlcNAc
# Summary of the method: as §1
# [17] = target: Neu5Ac(a2-3)Gal(b1-3)[Fuc(a1-4)]GlcNAc(b1-3)Gal(b1-3)[Fuc(a1-4)]GlcNAc
# Summary of the method: as §1
# [18] = target: Neu5Ac(a2-3)Gal(b1-3)[Fuc(a1-4)]GlcNAc(b1-3)Gal(b1-4)[Fuc(a1-3)]GlcNAc
# Summary of the method: as §1
# [19] = target: Neu5Ac(a2-3)Gal(b1-3)[GlcNAc(b1-6)]GalNAc
# Summary of the method: as §1
# [20] = target: Neu5Ac(a2-3)Gal(b1-3)[Neu5Ac(a2-6)]GalNAc
# Summary of the method: as §1
# [21] = target: Neu5Ac(a2-3)Gal(b1-3)[Neu5Ac(a2-6)]GlcNAc(b1-3)[Fuc(a1-3)[Gal(b1-4)]GlcNAc(b1-6)]Gal(b1-4)Glc
# Summary of the method: as §1
# [22] = target: Neu5Ac(a2-3)Gal(b1-3)]Neu5Ac(a2-3)Gal(b1-4)]GlcNAc
# Summary of the method: as §1
# [23] = target: Neu5Ac(a2-3)Gal(b1-4)Glc
# Summary of the method: as §1
# [24] = target: Neu5Ac(a2-3)Gal(b1-4)GlcNAc
# Summary of the method: as §1
# [25] = target: Neu5Ac(a2-3)Gal(b1-4)GlcNAc(b1-2)Man
# Summary of the method: as §1
# [26] = target: Neu5Ac(a2-3)Gal(b1-4)GlcNAc(b1-2)Man(a1-3)[GlcNAc(b1-4)][Neu5Ac(a2-3)Gal(b1-4)GlcNAc(b1-2)Man(a1-6)]Man(b1-4)GlcNAc(b1-4)GlcNAc
# Summary of the method: as §1
# [27] = target: Neu5Ac(a2-3)Gal(b1-4)GlcNAc(b1-2)Man(a1-3)[Neu5Ac(a2-3)Gal(b1-4)GlcNAc(b1-2)Man(a1-6)]Man(b1-4)GlcNAc(b1-4)GlcNAc
# Summary of the method: as §1
# [28] = target: Neu5Ac(a2-3)Gal(b1-4)GlcNAc(b1-2)Man(a1-3)[Neu5Ac(a2-3)Gal(b1-4)GlcNAc(b1-2)Man(a1-6)]Man(b1-4)GlcNAc(b1-4)[Fuc(a1-6)]GlcNAc
# Summary of the method: as §1
# [29] = target: Neu5Ac(a2-3)Gal(b1-4)GlcNAc(b1-2)Man(a1-3)[Neu5Ac(a2-6)Gal(b1-4)GlcNAc(b1-2)Man(a1-6)]Man(b1-4)GlcNAc(b1-4)GlcNAc
# Summary of the method: as §1
# [30] = target: Neu5Ac(a2-3)Gal(b1-4)GlcNAc(b1-2)[Neu5Ac(a2-3)Gal(b1-4)GlcNAc(b1-4)]Man(a1-3)[GlcNAc(b1-4)][Neu5Ac(a2-3)Gal(b1-4)GlcNAc(b1-2)[Neu5Ac(a2-3)Gal(b1-4)GlcNAc(b1-6)]Man(a1-6)]Man(b1-4)GlcNAc(b1-4)GlcNAc
# Summary of the method: as §1
# [31] = target: Neu5Ac(a2-3)Gal(b1-4)GlcNAc(b1-2)[Neu5Ac(a2-3)Gal(b1-4)GlcNAc(b1-4)]Man(a1-3)[GlcNAc(b1-4)][Neu5Ac(a2-3)Gal(b1-4)GlcNAc(b1-4)Man(a1-6)]Man(b1-4)GlcNAc(b1-4)GlcNAc
# Summary of the method: as §1
# [32] = target: Neu5Ac(a2-3)Gal(b1-4)GlcNAc(b1-2)[Neu5Ac(a2-3)Gal(b1-4)GlcNAc(b1-6)]Man(a1-6)[Neu5Ac(a2-3)Gal(b1-4)GlcNAc(b1-2)Man(a1-3)]Man(b1-4)GlcNAc(b1-4)GlcNAc
# Summary of the method: as §1
# [33] = target: Neu5Ac(a2-3)Gal(b1-4)GlcNAc(b1-2)[Neu5Ac(a2-3)Gal(b1-4)GlcNAc(b1-6)]Man(a1-6)[Neu5Ac(a2-3)Gal(b1-4)GlcNAc(b1-2)Man(a1-3)][GlcNAc(b1-4)]Man(b1-4)GlcNAc(b1-4)GlcNAc
# Summary of the method: as §1
# [34] = target: Neu5Ac(a2-3)Gal(b1-4)GlcNAc(b1-3)Gal
# Summary of the method: as §1
# [35] = target: Neu5Ac(a2-3)Gal(b1-4)GlcNAc(b1-3)Gal(b1-3)GlcNAc
# Summary of the method: as §1
# [36] = target: Neu5Ac(a2-3)Gal(b1-4)GlcNAc(b1-3)Gal(b1-4)GlcNAc
# Summary of the method: as §1
# [37] = target: Neu5Ac(a2-3)Gal(b1-4)GlcNAc(b1-3)Gal(b1-4)GlcNAc(b1-2)Man(a1-3)[Neu5Ac(a2-3)Gal(b1-4)GlcNAc(b1-3)Gal(b1-4)GlcNAc(b1-2)Man(a1-6)]Man(b1-4)GlcNAc(b1-4)GlcNAc
# Summary of the method: as §1
# [38] = target: Neu5Ac(a2-3)Gal(b1-4)GlcNAc(b1-3)Gal(b1-4)GlcNAc(b1-3)Gal(b1-4)GlcNAc
# Summary of the method: as §1
# [39] = target: Neu5Ac(a2-3)Gal(b1-4)GlcNAc(b1-3)Gal(b1-4)GlcNAc(b1-3)Gal(b1-4)GlcNAc(b1-2)Man(a1-3)[Neu5Ac(a2-3)Gal(b1-4)GlcNAc(b1-3)Gal(b1-4)GlcNAc(b1-3)Gal(b1-4)GlcNAc(b1-2)Man(a1-6)]GalNAc
# Summary of the method: as §1
# [40] = target: Neu5Ac(a2-3)Gal(b1-4)GlcNAc(b1-3)Gal(b1-4)GlcNAc(b1-3)GalNAc
# Summary of the method: as §1
# [41] = target: Neu5Ac(a2-3)Gal(b1-4)GlcNAc(b1-3)Gal(b1-4)GlcNAc(b1-3)[Neu5Ac(a2-3)Gal(b1-4)GlcNAc(b1-3)Gal(b1-4)GlcNAc(b1-6)]GalNAc
# Summary of the method: as §1
# [42] = target: Neu5Ac(a2-3)Gal(b1-4)GlcNAc(b1-3)Gal(b1-4)GlcNAc(b1-6)[Gal(b1-3)]GalNAc
# Summary of the method: as §1
# [43] = target: Neu5Ac(a2-3)Gal(b1-4)GlcNAc(b1-3)Gal(b1-4)[Fuc(a1-3)]GlcNAc
# Summary of the method: as §1
# [44] = target: Neu5Ac(a2-3)Gal(b1-4)GlcNAc(b1-3)GalNAc
# Summary of the method: as §1
# [45] = target: Neu5Ac(a2-3)Gal(b1-4)GlcNAc(b1-3)[Neu5Ac(a2-3)Gal(b1-4)GlcNAc(b1-6)]GalNAc
# Summary of the method: as §1
binder,measurement,setting,value
B1,glycan array binding signal (z-score),[1],0.041
same,glycan array binding signal (z-score),[2],-0.186
same,glycan array binding signal (z-score),[3],-0.245
same,glycan array binding signal (z-score),[4],-0.499
same,glycan array binding signal (z-score),[5],-0.442
same,glycan array binding signal (z-score),[6],0.293
same,glycan array binding signal (z-score),[7],-0.437
same,glycan array binding signal (z-score),[8],-0.459
same,glycan array binding signal (z-score),[9],-0.411
same,glycan array binding signal (z-score),[10],0.185
same,glycan array binding signal (z-score),[11],-0.268
same,glycan array binding signal (z-score),[12],-0.152
same,glycan array binding signal (z-score),[13],-0.418
same,glycan array binding signal (z-score),[14],-0.072
same,glycan array binding signal (z-score),[15],-0.032
same,glycan array binding signal (z-score),[16],0.088
same,glycan array binding signal (z-score),[17],-0.191
same,glycan array binding signal (z-score),[18],0.183
same,glycan array binding signal (z-score),[19],-0.392
same,glycan array binding signal (z-score),[20],-0.143
same,glycan array binding signal (z-score),[21],0.25
same,glycan array binding signal (z-score),[22],-0.004
same,glycan array binding signal (z-score),[23],0.091
same,glycan array binding signal (z-score),[24],-0.124
same,glycan array binding signal (z-score),[25],1.16
same,glycan array binding signal (z-score),[26],-0.128
same,glycan array binding signal (z-score),[27],-0.589
same,glycan array binding signal (z-score),[28],-0.361
same,glycan array binding signal (z-score),[29],-0.107
same,glycan array binding signal (z-score),[30],-0.191
same,glycan array binding signal (z-score),[31],-0.408
same,glycan array binding signal (z-score),[32],0.174
same,glycan array binding signal (z-score),[33],-0.276
same,glycan array binding signal (z-score),[34],-0.196
same,glycan array binding signal (z-score),[35],-0.537
same,glycan array binding signal (z-score),[36],-0.284
same,glycan array binding signal (z-score),[37],0.646
same,glycan array binding signal (z-score),[38],0.504
same,glycan array binding signal (z-score),[39],0.685
same,glycan array binding signal (z-score),[40],-0.354
same,glycan array binding signal (z-score),[41],0.07
same,glycan array binding signal (z-score),[42],-0.214
same,glycan array binding signal (z-score),[43],-0.403
same,glycan array binding signal (z-score),[44],-0.244
same,glycan array binding signal (z-score),[45],-0.136
